The chains are these.
B1: OR4K15 (parent)
chain: GUUAACGGUCAUAGGCCAUGGAAACUAGGAGCACCAUUUCGCUGCCAGUGAAGAAAUGAACAAAGAAAAUCUGGGCCAGGCAGGCAUCAAAAGAAAUAGUCUUGCGCUCAACCAGAAAGUCUGUAAUCAUUUUAAGGGUA

Read counts are not given, so values of variants with three or more changes are uncertain.

The data set covers variants of B1. As to the kind of experiment: self-cleavage, relative activity (ratio to wild type); higher = more cleavage; in vitro, sequencing; the parent is a self-cleaving ribozyme.
Consider GUUAACGGUCAUAGGCCAUGGAAACUAGGAGCACCAUUUCGCUGCCAGUGAAGAAAUGAACAAAGAAAAUCCGGGCCAGGCAGGCAUCAAAAGAAAUAGUCUUGCGCCCAACCAGAAAGUCUGUAAUCGUUUUAUGGGUA [U72C U108C A129G A135U], for which the self-cleavage stood at 0.
The result for GUUAACGGUCAUAGGCCAUGGAAACUAGGAGCACCAUUUCGCUGCCAGUGAAGAAAUGAACAAAGAAAAUCUGGCCCAGGCAGGCAUCAAAAGAAAUAGUCUUGCGCUCAACCAGAAAGCCAGUAAUCAUUUUAAGGGUA [G75C U120C U122A] reads 0.05.
Next, GUUAACGGUCAUAGGCCAUGGAAACUAGGAGCACCAUUUCGCUGCCAGUGAAGAAAUGAACAAAGAAAAUCCGGGCCAGGCAGGCAUCUAAAGAAGUAGUCUUGCGCUCAACCAGAAAGUCUGUAAUCAUUUUAAGGGUA [U72C A89U A96G]: 0.26.
Next, GUUAACGGUCAUAGGCCAUGGAAACUAGGAGCACCAUUUCGCUGCCAGUGAAGAAAUGAACAAAGAAAAUCUGUGCCAGGCAGGCAUCAAAAGAAAUAGUCUUGCGCUCGACCAGAAAGGCUGUAAUCAUUUUAAGGGUA [G74U A110G U120G]: 0.01; GUUAACGGUCAUAGGCCAUGGAAACUAGGAGCACCAUUUCGCUGCCAGUGAAGAAAUGAACAAAGAAAAUCCGGGCCAGGCAGGCAUCAAAAGGAAUAGUCUCGCGCUCAACCAGAAAGUCUGUAAUCAUUUUAAGGGUA [U72C A94G U103C]: 0.11; GUUAACGGUCAUAGGCCAUGGAAACUAGGAGCACCAUUUCGCUGCCAGUGAAGAAAUGAACAAAGAAAAUCUGGGACAGGCAGGCAUCAAAAGGAAUAGUCUCGCGCUCAACCAGAAAGUCUGUAAUCAGUUUAAGGGUA [C76A A94G U103C U130G]: 0.02.
Regarding GUUAACGGUCAUAGGCCAUGGAAACUAGGAGCACCAUUUCGCUGCCAGUGAAGAAAUGAACAAAGAAAAUCCGGGCCAGGCAGGCAUCGAAAGAAAUAGUCUUGCGCUCAACCAGAAAGUCUGCAAUCAUUUUAAGGGUA [U72C A89G U124C], the self-cleavage came out at 0.08.
Next, GUUAACGGUCAUAGGCCAUGGAAACUAGGAGCACCAUUUCGCUGCCAGUGAAGAAAUGAACAAAGAAAAUCCGGGCCAGGCAGGCAUCAAAAGAAAUAGUCUUGCGCUCAAGCAGAAAGUCUGUAAUCACUUUAAGGGUA [U72C C112G U130C]: 0.
For GUUAACGGUCAUAGGCCAUGGAAACUAGGAGCACCAUUUCGCUGCCAGUGAAGAAAUGAACAAAGAAAAUCCGGGCCAGGCAGGCAUCAAGAGAAAUAGUCUUGCGCUCAACCAGAGAGUCUGUAAUCAUUCUAAGGGCA [U72C A91G A117G U132C U139C], the self-cleavage was 0.13.
Regarding GUUAACGGUCAUAGGCCAUGGAAACUAGGAGCACCAUUUCGCUGCCAGUGAAGAAAUGAACAAAGAAAAUCUAGGCCAGGCAGGCAUCAAAAGAAAUAGUCUUGCGCCCAACCAGAAAGUCUGUAAUCACUUUAAGGGUA [G73A U108C U130C], the self-cleavage was determined as 0.01.
The result for GUUAACGGUCAUAGGCCAUGGAAACUAGGAGCACCAUUUCGCUGCCAGUGAAGAAAUGAACAAAGAAAAUCUGGCCCAGGCAGGCAUCCAAAGGAAUAGUCUUGCGCUCAACCAGAAAGUCUGUAAUCCUUUUAAGGGUA [G75C A89C A94G A129C] reads 0.1.
Next, GUUAACGGUCAUAGGCCAUGGAAACUAGGAGCACCAUUUCGCUGCCAGUGAAGAAAUGAACAAAGAAAAUCUGGGCAAGGCAGGCAUCAAAAGAGAUAGUCUCGCGCUCAACCAGAAAGUCUGUAAUCAUUUUAAGGGUA [C77A A95G U103C]: 0.82; GUUAACGGUCAUAGGCCAUGGAAACUAGGAGCACCAUUUCGCUGCCAGUGAAGAAAUGAACAAAGAAAAUCUGGCCCAGGCGGGCAUCAGAAGAAAUAGUCUUGCGCUCAACCAGAAAGUCUGUAAUCAUUUUAAGGGUA [G75C A82G A90G]: 0.23.
Turning to GUUAACGGUCAUAGGCCAUGGAAACUAGGAGCACCAUUUCGCUGCCAGUGAAGAAAUGAACAAAGAAAAUCCGGGCCAGGCAGGCAUCAAAAGAGAUAGUCUUUCGCUCAACCAGAAAGUCUGUAAUCAUUUUAUGGGUA [U72C A95G G104U A135U], the self-cleavage came to 0.01.
The result for GUUAACGGUCAUAGGCCAUGGAAACUAGGAGCACCAUUUCGCUGCCAGUGAAGAAAUGAACAAAGAAAAUCCGGGCCAGGCAGGCAUCAAUAGAAAUAGUCUUGCGCUCAGCCAGAAAGUCUGUAAUCAUUUUAAGGGUA [U72C A91U A111G] reads 0.01; that for GUUAACGGUCAUAGGCCAUGGAAACUAGGAGCACCAUUUCGCUGCCAGUGAAGAAAUGAACAAAGAAAAUCUGGCCCAGGCAGGCAUCAAAAGAAAUAGUCCAGCGCUCAACCAGAAAGUCUGUAAUCAUUUUAAGGGUA [G75C U102C U103A], 0.01; that for GUUAACGGUCAUAGGCCAUGGAAACUAGGAGCACCAUUUCGCUGCCAGUGAAGAAAUGAACAAAGAAAAUCUGGACCAGGCAGGCAUCAAAAGAAAUAGUCUUGCGCUCAGCCAGAUAGUCUGUAAUCAUUUUAAGGGUA [G75A A111G A117U], 0.01.
Next, GUUAACGGUCAUAGGCCAUGGAAACUAGGAGCACCAUUUCGCUGCCAGUGAAGAAAUGAACAAAGAAAAUCUGAGCCAGGCAGGCAUCAAAAGAAGUAGUCUUGCGCUCAUCCAGAAAGUCUGUAAUCAUUUUAAGGGUA [G74A A96G A111U]: 0.03.
In the case of GUUAACGGUCAUAGGCCAUGGAAACUAGGAGCACCAUUUCGCUGCCAGUGAAGAAAUGAACAAAGAAAAUCCGGGCCAGGCAGGCAUCAAAAGAAAUAGCCUUGCGCUCAACCAGAAAGUCUGUAAUCAUUUUAGGGGUA [U72C U100C A135G], the self-cleavage turned out to be 0.33.
Turning to GUUAACGGUCAUAGGCCAUGGAAACUAGGAGCACCAUUUCGCUGCCAGUGAAGAAAUGAACAAAGAAAAUCUGGGUCAGGCAGGCAUCAAAAGAAAUAGUCUUGCGCUCAACCAGAGGGUCUGUAAUCAUUUUAAGGGUA [C76U A117G A118G], the self-cleavage was determined as 0.04.
The result for GUUAACGGUCAUAGGCCAUGGAAACUAGGAGCACCAUUUCGCUGCCAGUGAAGAAAUGAACAAAGAAAAUCUGGACCAGGCUGGCAUCCAAAGAAAUAGUCUUGCGCUCAACCAGAAAGUCUGUAAUCAUUUUAAGGGUA [G75A A82U A89C] reads 0.18; that for GUUAACGGUCAUAGGCCAUGGAAACUAGGAGCACCAUUUCGCUGCCAGUGAAGAAAUGAACAAAGAAAAUCUGAGCCAGGCAGGCAUCUAAAGAAAUAGUCUUGCGCUCAACCAGAAUGUCUGUAAUCAUUUUAAGGGUA [G74A A89U A118U], 0.09.
With GUUAACGGUCAUAGGCCAUGGAAACUAGGAGCACCAUUUCGCUGCCAGUGAAGAAAUGAACAAAGAAAAUCUAUGCCUGGCAGGCACCAAAAGGAAUAGUCUUGCGCUCAACCAGAAAGUCUGUAAUCAUUUUAAGGGUA [G73A G74U A78U U87C A94G], the self-cleavage stood at 0.16.
Next, GUUAACGGUCAUAGGCCAUGGAAACUAGGAGCACCAUUUCGCUGCCAGUGAAGAAAUGAACAAAGAAAAUCUGUGCCAGGCAGGCAUCAAAAGAAAUAGCCUUGCGCCCAACCAGAAAGUCUGUAAUCAUUUUAAGGGUA [G74U U100C U108C]: 0.
The result for GUUAACGGUCAUAGGCCAUGGAAACUAGGAGCACCAUUUCGCUGCCAGUGAAGAAAUGAACAAAGAAAAUCCGGGCCAGGUAGGCACCAAAAGAAAUAGUCUUGCGCUCAACCAGAAAGUCUGUAAUCAUUUUAAGGGUA [U72C C81U U87C] reads 0.13; that for GUUAACGGUCAUAGGCCAUGGAAACUAGGAGCACCAUUUCGCUGCCAGUGAAGAAAUGAACAAAGAAAAUCUGGCCCAGGCAGGCAUCAAAAGAAAUAGUCUUGCGCUCAACCAGAAAGUCUGUAAUCGUUUUAAGGGUG [G75C A129G A140G], 0.04; that for GUUAACGGUCAUAGGCCAUGGAAACUAGGAGCACCAUUUCGCUGCCAGUGAAGAAAUGAACAAAGAAAAUCUGGGUCAGGCAGGCACCAAAAGAAAUAGUCUUGCGCUCAACCAGAAAGUCUGUAGUCAUUUUAGGGGAA [C76U U87C A126G A135G U139A], 0.05.
Next, GUUAACGGUCAUAGGCCAUGGAAACUAGGAGCACCAUUUCGCUGCCAGUGAAGAAAUGAACAAAGAAAAUCUGGGCAAGGCAGGCAUCAAAAGGAAUAGUCUUGCGCUCAACCGGAAAGACUGUAAUCAUUUUAAGGGUA [C77A A94G A114G U120A]: 0.19; GUUAACGGUCAUAGGCCAUGGAAACUAGGAGCACCAUUUCGCUGCCAGUGAAGAAAUGAACAAAGAAAAUCUGAGCCAGGCAGGCAUCAAAAGAAAUAGUCUUGCGCUCCACCAGAAAGUCUGUAACCAUUUUAAGGGUA [G74A A110C U127C]: 0.03; GUUAACGGUCAUAGGCCAUGGAAACUAGGAGCACCAUUUCGCUGCCAGUGAAGAAAUGAACAAAGAAAAUCUGGACCAGGCGGGCAUCAAAAGAAAUAGUCUUGCGCUCAACCAGAAAGCCUGUAAUCAUUUUAAGGGUA [G75A A82G U120C]: 0.1.
In the case of GUUAACGGUCAUAGGCCAUGGAAACUAGGAGCACCAUUUCGCUGCCAGUGAAGAAAUGAACAAAGAAAAUCCGGGCCAGGCAGGCAUCAAAAGAAAUAGUCUUGCGCUCAACCAGAAAGUCGGUAAUCAUCUUAAGGGUA [U72C U122G U131C], the self-cleavage stood at 0.41.
Next, GUUAACGGUCAUAGGCCAUGGAAACUAGGAGCACCAUUUCGCUGCCAGUGAAGAAAUGAACAAAGAAAAUCUGAGCCAGGCAGGCAUCAAAAGAAAUGGCCUUGCGCUCAACCAGAAAGUCUGCAAUCAUUUUAUGGGUA [G74A A98G U100C U124C A135U]: 0.04; GUUAACGGUCAUAGGCCAUGGAAACUAGGAGCACCAUUUCGCUGCCAGUGAAGAAAUGAACAAAGAAAAUCCGGGCCAGGCAGGCAUCAAAAGAAAUAGCCUUGCGCUCAACCAGAAAGUCUGUAAUCAUUUUAAGGGCA [U72C U100C U139C]: 0.35.
Next, GUUAACGGUCAUAGGCCAUGGAAACUAGGAGCACCAUUUCGCUGCCAGUGAAGAAAUGAACAAAGAAAAUCCGGGCCAGGCAGGCAUCAAAAGAAAUAGUCUUGCGCUCAACAAGGAAGUCUGUAAUCAUUUUAAGGGUA [U72C C113A A116G]: 0.
Next, GUUAACGGUCAUAGGCCAUGGAAACUAGGAGCACCAUUUCGCUGCCAGUGAAGAAAUGAACAAAGAAAAUCCGGGCCAGGCAGGCACCAAAAGAAAUAGUCUUGCGCUCAACCAGAAAGUCUGUAGUCAUUUUAAGGGUA [U72C U87C A126G]: 0.03; GUUAACGGUCAUAGGCCAUGGAAACUAGGAGCACCAUUUCGCUGCCAGUGAAGAAAUGAACAAAGAAAAUCCGGGCCAGGCAGGCACCAAAAGAAAUAGUCUUGCGCUCAACCAGAAGGUCUGUAGUCAUUUUAAGGGUA [U72C U87C A118G A126G]: 0.1; GUUAACGGUCAUAGGCCAUGGAAACUAGGAGCACCAUUUCGCUGCCAGUGAAGAAAUGAACAAAGAAAAUCUAGGCCAGGCAGGCAUCAAAAGAAUUAGUCUCGCGCUCAACCAGAAAGUCUGUAAUCAUUUUAAGGGUA [G73A A96U U103C]: 0.15.
As to GUUAACGGUCAUAGGCCAUGGAAACUAGGAGCACCAUUUCGCUGCCAGUGAAGAAAUGAACAAAGAAAAUCUGGGCUGGGCAGGCAUCAAAGGAAAUAGUCUUGCGCUCAACCAGAAAGCCUGUAAUCAUUUUAAGGGUA [C77U A78G A92G U120C], the self-cleavage is 0.2.
The result for GUUAACGGUCAUAGGCCAUGGAAACUAGGAGCACCAUUUCGCUGCCAGUGAAGAAAUGAACAAAGAAAAUCCGGGCCAGGCAGGCAUCAAAAGAAAUAGUCUCGCGCUCAAACAGAAAGUCUGUAAUCAUUUUAAGGGUA [U72C U103C C112A] reads 0.01; that for GUUAACGGUCAUAGGCCAUGGAAACUAGGAGCACCAUUUCGCUGCCAGUGAAGAAAUGAACAAAGAAAAUCCGGGCCAGGCAGGCAUCAAAAGAAGUAGUCUUGCGCUCAUCCAGAAAGUCAGUAAUCAUUUUAAGGGUA [U72C A96G A111U U122A], 0.04.
Next, GUUAACGGUCAUAGGCCAUGGAAACUAGGAGCACCAUUUCGCUGCCAGUGAAGAAAUGAACAAAGAAAAUCUGGUCCAGGCAGGCAUCAAAAGGUGUAGUCUUGCGCUCAACCAGAAAGUCUGUAAUCAUUUUAAGGGUG [G75U A94G A95U A96G A140G]: 0.06.

Values taken from the RNAGym collection of RNA variant scans (doi:10.7554/elife.90254).
